According to PubChem BioAssay AID2675 (National Center for Advancing Translational Sciences (NCATS), 2010):
About 100 (0.036%) of roughly 280,000 compounds were called active. This list was built around the results that the source calls inconclusive (neither active nor inactive); the mix of calls is not that of the screen. The call rests on the fitted dose curve; in most records, active means well fitted inhibition curve with a large enough effect in the signal ratio, with a control signal flat (not every such curve was filed as active); inconclusive means small, poorly fitted or top-dose-only effect, or effect the other way, or a change in a side signal; inactive means no such curve, though single readings can be large or run the other way; the % refers to the signal ratio. Potencies of inconclusive entries are doubtful fits and often do not repeat. “Side channel” marks fits to a control or component signal instead of the main read-out.
Potency means the concentration at half of the fitted maximal effect; tags describe the fitted curve by direction and shape or compound fluorescence and quenching.

The compounds below were run against Muscleblind-like protein 1 (Homo sapiens) (UniProt Q9NR56) (assay: qHTS Assay for Inhibitors of MBNL1-poly(CUG) RNA binding). Conditions: TR-FRET MBNL1-His/biotin-(CUG)12 binding, 665/545 ratio; series mostly up to 57.5 µM.
Sequence of UniProt Q9NR56 (Q9NR56 whole entry, looked up): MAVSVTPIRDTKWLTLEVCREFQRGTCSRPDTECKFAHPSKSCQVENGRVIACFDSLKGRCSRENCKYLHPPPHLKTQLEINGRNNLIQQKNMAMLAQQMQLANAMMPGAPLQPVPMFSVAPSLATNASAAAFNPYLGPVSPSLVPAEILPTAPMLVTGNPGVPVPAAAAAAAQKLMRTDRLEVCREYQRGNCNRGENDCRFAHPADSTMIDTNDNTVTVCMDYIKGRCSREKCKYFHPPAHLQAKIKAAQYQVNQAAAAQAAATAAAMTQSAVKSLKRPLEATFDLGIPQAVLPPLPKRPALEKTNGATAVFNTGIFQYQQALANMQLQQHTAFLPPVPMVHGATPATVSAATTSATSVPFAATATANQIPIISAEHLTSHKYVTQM
How it was run: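 MBNL1-His + Biotin-(CUG)12, cpd titration 92 nM–58 uM; Tb anti-His Ab 0.055 ng/ul, SA-XL665 5 nM (final); 60 min RT; ratiometric 665/545 nm, Ex 340 nm; normalized to buffer and full-complex controls.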
In the case of `CCOC(=O)C1CCCN(C(=O)CCc2nnc(-c3ccc(C(C)=O)s3)o2)C1` (stereo unspecified), the Potency is reported as inconclusive: 11.2 µM [quencher, side channel, partial curve].
`CCN1CCc2c(sc(NC(=O)c3ccc(S(=O)(=O)N4CCCCCC4)cc3)c2C(=O)NC)C1` was tested, and the Potency was “inactive”.
For `O=C(COC(=O)c1ccccc1C(=O)c1ccccc1)NCCc1ccc(Cl)cc1Cl`, the Potency was inconclusive: 0.398 µM [fluorescent, side channel, partial curve].
For `COc1cc(-c2ccc3c(=O)c4ccccc4n(C)c3c2)cc(OC)c1OC`, the Potency was inconclusive: 15.8 µM [quencher, side channel, partial curve].
In the case of `CN(C)c1cc(Nc2cccc(O)c2)c([N+](=O)[O-])c2nonc12`, the Potency is reported as inconclusive: 3.55 µM [quencher, side channel, full curve].
For `CC(C)N1CCC(N2CCN(Cc3cccc4nonc34)CC2CCO)CC1` (stereo unspecified), the Potency was inconclusive: 17.8 µM [quencher, side channel, partial curve].
`C/C(=N\NC(=O)c1nn(C)cc1Cl)c1ccncc1` was tested, and the Potency was inconclusive: 39.8 µM [quencher, side channel, single point].
`O=[N+]([O-])c1ccc(S(=O)(=O)N/N=C/c2ccc3c(c2)OCO3)cc1` was tested, and the Potency was inconclusive: 35.5 µM [quencher, side channel, single point].
`Cc1nc2ccc([N+](=O)[O-])cc2c(=O)n1Cc1ccc(F)cc1` was tested, and the Potency was inconclusive: 6.31 µM [quencher, side channel, partial curve].
`COC(=O)C1=C(C)N(Cc2ccccc2)C(=S)N[C@H]1c1ccccc1` was tested, and the Potency was “inactive”.
For `O=C(O)/C(CC(=O)c1ccc(Cl)cc1)=N/Nc1ccc([N+](=O)[O-])cc1[N+](=O)[O-]`, the Potency was inconclusive: 25.1 µM [quencher, side channel, single point].
`COc1ccc(-c2cc(-c3ccccc3)nc3ncnn23)cc1` was tested, and the Potency was “inactive”.
For `CC1=NC(=O)C(N=Nc2cccc(C(=O)O)c2)N1c1ccccc1` (stereo unspecified), the Potency was inconclusive: 15.8 µM [quencher, partial curve].
`Cc1ccc(/C=c2\sc3n(c2=O)CN(c2ccc(Br)cc2)CN=3)o1` was tested, and the Potency was inconclusive: 14.1 µM [quencher, side channel, partial curve, poor fit].
For `COC(=O)C1=C(C)N(c2cc(C)cc(C)c2)/C(=C/c2ccc(O)cc2)C1=O`, the Potency was “inactive”.
With `O=C(Nc1nccs1)c1ccc(N2CCOCC2)c([N+](=O)[O-])c1` the Potency was inconclusive: 14.1 µM [quencher, side channel, partial curve].
For `COc1ccc(C(=O)NCc2ccc(Cl)c(Cl)c2)cc1OC`, the Potency was “inactive”.
For `O=C(/C=C/c1ccc(Cl)cc1Cl)Nc1cccc(S(=O)(=O)NC2=NCCCCC2)c1`, the Potency was inconclusive: 8.91 µM [quencher, side channel, partial curve].
For `CN(C)CCC(c1ccccc1)c1ccccn1` (stereo unspecified), the Potency was inconclusive: 100 µM [inhibitor, single point].
`CCCN1C(=O)/C(=C2/C=Cc3ccccc3N2CC)SC1=S` was tested, and the Potency was inconclusive: 3.16 µM [quencher, side channel, full curve, poor fit].
In the case of `Cc1cccc(Nc2nc(-c3ccncc3)cs2)c1`, the Potency is reported as inconclusive: 17.8 µM [quencher, side channel, partial curve].
For `CCOC(=O)N1CCN(c2ccc([N+](=O)[O-])cc2)CC1`, the Potency was inconclusive: 20 µM [quencher, side channel, partial curve].
With `CC(C)C(=O)Nc1sc2c(c1-c1nc3ccccc3[nH]1)CCCC2` the Potency was “inactive”.
For `COc1ccc(COCC(O)CN2CCCCC2)cc1OC` (stereo unspecified), the Potency was “inactive”.
`NC(=O)[C@@H]1CCCCNc2c(I)cc([N+](=O)[O-])cc2C(=O)N[C@@H](CCC(=O)O)C(=O)N[C@@H](CO)C(=O)N1` was tested, and the Potency was inconclusive: 7.08 µM [quencher, side channel, partial curve].
In the case of `CC1(C)Cc2c(c(-c3ccco3)nc3sc4c(NCC5CCCO5)ncnc4c23)CO1` (stereo unspecified), the Potency is reported as “inactive”.
`Cc1ccc2nc(Cl)c(/C=N/Nc3ccc(C(=O)O)cc3)cc2c1` was tested, and the Potency was inconclusive: 28.2 µM [quencher, single point].
`Cc1ccc(OCc2cccc(S(=O)(=O)N(C)C)c2)c([N+](=O)[O-])n1` was tested, and the Potency was inconclusive: 14.1 µM [quencher, side channel, partial curve].
With `O=C(O)CCC(=O)NNC(=O)c1ccc([N+](=O)[O-])cc1` the Potency was inconclusive: 25.1 µM [quencher, side channel, partial curve].
In the case of `CCCCCCn1ccc(=N)cc1`, the Potency is reported as “inactive”.
In the case of `O=C1CCC/C1=C\Nc1ccc(Cl)c([N+](=O)[O-])c1`, the Potency is reported as inconclusive: 28.2 µM [quencher, side channel, partial curve].
For `O=C(N/N=C/c1ccc([N+](=O)[O-])o1)C(O)c1ccccc1` (stereo unspecified), the Potency was inconclusive: 7.08 µM [quencher, side channel, partial curve].
With `CN(C)S(=O)(=O)c1cccc(NC(=O)COC(=O)/C=C/c2ccco2)c1` the Potency was inconclusive: 1.26 µM [quencher, side channel, full curve, poor fit].
In the case of `O=C(NN1C(=O)c2ccccc2C1=O)c1ccccc1[N+](=O)[O-]`, the Potency is reported as inconclusive: 14.1 µM [quencher, side channel, partial curve].
With `Cc1ccc(-n2nc3c(=O)n(C(C)C(=O)NCc4ccc5c(c4)OCO5)nc(C)c3c2C)cc1` (stereo unspecified) the Potency was “inactive”.
`CCN(Cc1ccc(OC)c(COC)c1)CC1CCCN(CCc2cccc(F)c2)C1` (stereo unspecified) was tested, and the Potency was “inactive”.
For `COc1cc(C(=O)NC(=S)Nc2ccc(Cl)cn2)cc(OC)c1OC`, the Potency was “inactive”.
For `Cc1ccc(S(=O)(=O)NN=C2C3CC4CC(C3)CC2C4)cc1[N+](=O)[O-]`, the Potency was inconclusive: 10 µM [quencher, side channel, partial curve, poor fit].
For `COc1ccc(Nc2cc(C(=O)NCCCN3CCOCC3)c3ccccc3n2)cc1`, the Potency was “inactive”.
`CCCCc1nc(N2CCOCC2)c(C#N)c2c1COC(C)(C)C2` was tested, and the Potency was “inactive”.
In the case of `CC(OC(=O)c1ccc(NC(=O)CC#N)cc1)C(=O)Nc1ccc(Oc2ccccc2)cc1` (stereo unspecified), the Potency is reported as inconclusive: 63.1 µM [inhibitor, single point].
In the case of `O=C(Nc1ccc2c(c1)nc1n2CCN(Cc2ccccc2)C1)NC1CCCCC1`, the Potency is reported as “inactive”.
For `COc1ccc(C(=O)/C=C/Nc2ccccn2)c(OC)c1`, the Potency was inconclusive: 11.2 µM [quencher, partial curve].
In the case of `COc1ccc(CCNc2cc(=O)[nH]c(N)n2)cc1`, the Potency is reported as inconclusive: 50.1 µM [inhibitor, partial curve].
In the case of `O=c1[nH]c(NCc2ccccc2)nc2c1CCCC2`, the Potency is reported as inconclusive: 10 µM [quencher, side channel, partial curve].
`Cc1ccc(S(=O)(=O)N2CCCC(C(=O)NCCC3=CCCCC3)C2)cc1` (stereo unspecified) was tested, and the Potency was inconclusive: 6.31 µM [quencher, side channel, single point].
For `CCOC(=O)C1=C(C)NC(C)=C(C(=O)OCC)C1c1ccc([N+](=O)[O-])s1`, the Potency was inconclusive: 31.6 µM [quencher, side channel, single point].
In the case of `CSc1ccc(/C=N/NC(=O)c2cccc(O)c2)cc1`, the Potency is reported as inconclusive: 6.31 µM [quencher, side channel, partial curve].
With `Cc1ccc(-c2nc(N/N=C/c3cccnc3)c3ccccc3n2)cc1` the Potency was inconclusive: 20 µM [quencher, side channel, partial curve].
In the case of `CCOC(=O)C1CCN(C/C=C/c2ccccc2[N+](=O)[O-])CC1`, the Potency is reported as inconclusive: 22.4 µM [quencher, side channel, single point].
`Cc1ccc(Cl)cc1NC(=O)CSc1nnc(C)n1-c1ccccc1` was tested, and the Potency was inconclusive: 12.6 µM [fluorescent, side channel, partial curve, poor fit].
`CCC(=O)CCC(=O)c1ccc2ccccc2c1` was tested, and the Potency was inconclusive: 35.5 µM [quencher, side channel, single point].
With `O=C(c1ccco1)N1CCCC(c2nc(-c3ccc(S(=O)(=O)NCc4ccccc4)cc3)no2)C1` (stereo unspecified) the Potency was inconclusive: 28.2 µM [quencher, side channel, single point].
With `Cc1cccc(S(=O)(=O)N2CN(CC3CCCO3)c3nc4ccccc4nc32)c1` (stereo unspecified) the Potency was inconclusive: 22.4 µM [quencher, side channel, single point].
For `Nc1ccc2nc(-c3ccccn3)[nH]c2c1`, the Potency was inconclusive: 39.8 µM [quencher, side channel, single point].
In the case of `N/C(=N\OC(=O)CCCc1ccccc1)c1ccc([N+](=O)[O-])cc1`, the Potency is reported as inconclusive: 12.6 µM [quencher, side channel, partial curve].
For `O=C(O)CCCc1nc(-c2ccc(Cl)cc2)no1`, the Potency was “inactive”.
For `Cc1oc2ccc(O)cc2c1C(=O)c1ccc([N+](=O)[O-])cc1`, the Potency was inconclusive: 15.8 µM [quencher, side channel, partial curve].
`CC(=O)NC1=NN(C(C)=O)C(C)(c2cccc([N+](=O)[O-])c2)S1` (stereo unspecified) was tested, and the Potency was inconclusive: 22.4 µM [quencher, side channel, single point].
With `COc1ccc(/C=C(/NC(=O)c2cccc([N+](=O)[O-])c2)C(=O)O)cc1OC` the Potency was inconclusive: 15.8 µM [quencher, side channel, partial curve].
In the case of `COc1cc(/C=C2\SC(=S)N(C(C(=O)O)c3ccccc3)C2=O)cc(OC)c1OC` (stereo unspecified), the Potency is reported as “inactive”.
